Laboratory results from the supplement of paper PMC10126150.
Values marked as one replicate rest on one cluster of the flow cell; about a third of the high ones do not repeat.

Tested on: ATP
Assay: switch fluorescence ratio, 500 uM ATP over buffer (Cy3 cluster intensity, sum of 5 cycles each) (fold (ratio)); higher = stronger signal-on switching upon ATP binding; sequences stand for … in TCGTCGGCAGCGTCAGATGTGTATAAGAGACAGTTTTTTTTTTTTTTTTTTTTTTTTT…TC
Details: aptamer strand: ATP DNA aptamer (quencher-CACCTGGGGGAGTATTGCGGAGGAAGG + anchor), 100 nM annealed; ATP concentration: 500 uM; one replicate
How it was run: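 Clusters carrying Cy3-labelled switching strands on a modified Illumina MiSeq flow-cell were annealed to 100 nM quencher-labelled ATP aptamer and imaged in selection buffer. They were imaged again after 15 min with 500 uM ATP at 22 °C, over five buffer/ATP cycles with NaOH stripping and re-annealing in between. For each cluster, the fluorescence ratio is the summed Cy3 intensity of the target cycles divided by that of the buffer cycles, averaged per switch-domain sequence. Clusters outside 100-1000 RFU were left out.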
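Also: ATP exposure 15 min at 22 °C before imaging.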

**Q.** With ATGGTGCTTA as the sequence, how does the switch fluorescence ratio read?
**A.** 1.01

**Q.** For ATGGTGTACG, which switch fluorescence ratio is on record?
**A.** 0.982

**Q.** With ATGGTGTGTA as the sequence, how does the switch fluorescence ratio read?
**A.** 0.964

**Q.** For ATGGTTTACA, which switch fluorescence ratio is on record?
**A.** 0.984

**Q.** For ATGTAAGAGT, which switch fluorescence ratio is on record?
**A.** 1.09

**Q.** With ATGTAATCTT as the sequence, how does the switch fluorescence ratio read?
**A.** 1.05

**Q.** Which switch fluorescence ratio does the source give for ATGTACTTCC here?
**A.** 2.05

**Q.** How did the switch fluorescence ratio turn out when ATGTATACGC was run?
**A.** 1.05

**Q.** For ATGTATTGAT, which switch fluorescence ratio is on record?
**A.** 0.964

**Q.** ATGTCACATT was tested. Which switch fluorescence ratio did it give?
**A.** 0.994

**Q.** How did the switch fluorescence ratio turn out when ATGTCAGCG was run?
**A.** 1

**Q.** Which switch fluorescence ratio does the source give for ATGTCAGCTT here?
**A.** 0.971

**Q.** ATGTCATTAC was tested. Which switch fluorescence ratio did it give?
**A.** 1.21

**Q.** With ATGTCCAATT as the sequence, how does the switch fluorescence ratio read?
**A.** 1.01

**Q.** ATGTCCGACA was tested. Which switch fluorescence ratio did it give?
**A.** 0.999

**Q.** For ATGTCCGACG, which switch fluorescence ratio is on record?
**A.** 1.12

**Q.** Which switch fluorescence ratio does the source give for ATGTCCTGAA here?
**A.** 1

**Q.** With ATGTCTGATG as the sequence, how does the switch fluorescence ratio read?
**A.** 1.01

**Q.** Which switch fluorescence ratio does the source give for ATGTGAGGCA here?
**A.** 0.975

**Q.** How did the switch fluorescence ratio turn out when ATGTGATTTT was run?
**A.** 1.02

**Q.** ATGTGCTCTT was tested. Which switch fluorescence ratio did it give?
**A.** 0.937

**Q.** Which switch fluorescence ratio does the source give for ATGTGGACAT here?
**A.** 0.979

**Q.** How did the switch fluorescence ratio turn out when ATGTGGATCC was run?
**A.** 0.966

**Q.** Which switch fluorescence ratio does the source give for ATGTGGGTTC here?
**A.** 1.04

**Q.** How did the switch fluorescence ratio turn out when ATGTGGTCCT was run?
**A.** 1.01

**Q.** Which switch fluorescence ratio does the source give for ATGTGTATG here?
**A.** 1.01

**Q.** Which switch fluorescence ratio does the source give for ATGTTAGTTA here?
**A.** 0.98

**Q.** ATGTTCAATT was tested. Which switch fluorescence ratio did it give?
**A.** 0.936

**Q.** ATGTTCCGTG was tested. Which switch fluorescence ratio did it give?
**A.** 1.02

**Q.** With ATGTTCGCGT as the sequence, how does the switch fluorescence ratio read?
**A.** 0.966

**Q.** How did the switch fluorescence ratio turn out when ATGTTTAGGA was run?
**A.** 1.07

**Q.** For ATGTTTGGG, which switch fluorescence ratio is on record?
**A.** 0.967

**Q.** Which switch fluorescence ratio does the source give for ATTAAACAGA here?
**A.** 0.96

**Q.** With ATTAAAGAGA as the sequence, how does the switch fluorescence ratio read?
**A.** 0.936

**Q.** Which switch fluorescence ratio does the source give for ATTAAATGGT here?
**A.** 0.979

**Q.** For ATTAACCGAA, which switch fluorescence ratio is on record?
**A.** 1.07

**Q.** ATTAACCGTT was tested. Which switch fluorescence ratio did it give?
**A.** 1.02

**Q.** How did the switch fluorescence ratio turn out when ATTAACTCCT was run?
**A.** 1.16

**Q.** How did the switch fluorescence ratio turn out when ATTAAGATCA was run?
**A.** 1.01

**Q.** With ATTAAGCGG as the sequence, how does the switch fluorescence ratio read?
**A.** 1.02

**Q.** How did the switch fluorescence ratio turn out when ATTAAGCTTT was run?
**A.** 0.998

**Q.** Which switch fluorescence ratio does the source give for ATTAAGGCTG here?
**A.** 0.998

**Q.** How did the switch fluorescence ratio turn out when ATTAAGGGAT was run?
**A.** 1.02

**Q.** ATTAAGTATT was tested. Which switch fluorescence ratio did it give?
**A.** 1.12

**Q.** With ATTAATAACA as the sequence, how does the switch fluorescence ratio read?
**A.** 0.986

**Q.** For ATTAATAGGT, which switch fluorescence ratio is on record?
**A.** 0.993

**Q.** ATTAATATCT was tested. Which switch fluorescence ratio did it give?
**A.** 1.01

**Q.** For ATTAATGGCA, which switch fluorescence ratio is on record?
**A.** 0.988

**Q.** Which switch fluorescence ratio does the source give for ATTAATTCAT here?
**A.** 0.979

**Q.** How did the switch fluorescence ratio turn out when ATTACAACTA was run?
**A.** 1.01

**Q.** How did the switch fluorescence ratio turn out when ATTACACCTC was run?
**A.** 1.06

**Q.** For ATTACAGGTC, which switch fluorescence ratio is on record?
**A.** 1.07

**Q.** ATTACCCCAT was tested. Which switch fluorescence ratio did it give?
**A.** 1.07

**Q.** With ATTACGCTGC as the sequence, how does the switch fluorescence ratio read?
**A.** 1.38

**Q.** ATTACTCTTT was tested. Which switch fluorescence ratio did it give?
**A.** 1.02

**Q.** How did the switch fluorescence ratio turn out when ATTACTTATT was run?
**A.** 1.02

**Q.** For ATTAGAGACA, which switch fluorescence ratio is on record?
**A.** 0.999

**Q.** With ATTAGAGCGA as the sequence, how does the switch fluorescence ratio read?
**A.** 1.04

**Q.** For ATTAGAGGT, which switch fluorescence ratio is on record?
**A.** 0.956

**Q.** ATTAGCGATA was tested. Which switch fluorescence ratio did it give?
**A.** 1.16

**Q.** With ATTAGCTGG as the sequence, how does the switch fluorescence ratio read?
**A.** 0.989

**Q.** Which switch fluorescence ratio does the source give for ATTAGCTTGA here?
**A.** 0.981

**Q.** ATTAGCTTGC was tested. Which switch fluorescence ratio did it give?
**A.** 0.96

**Q.** ATTAGGCCTC was tested. Which switch fluorescence ratio did it give?
**A.** 0.988

**Q.** For ATTAGGGAGG, which switch fluorescence ratio is on record?
**A.** 1.03

**Q.** For ATTAGTTTAA, which switch fluorescence ratio is on record?
**A.** 0.946

**Q.** With ATTATACTCT as the sequence, how does the switch fluorescence ratio read?
**A.** 1.04

**Q.** For ATTATCACTT, which switch fluorescence ratio is on record?
**A.** 1.02

**Q.** Which switch fluorescence ratio does the source give for ATTATCATTA here?
**A.** 0.964

**Q.** Which switch fluorescence ratio does the source give for ATTATCGCCA here?
**A.** 0.979

**Q.** ATTATCTTAG was tested. Which switch fluorescence ratio did it give?
**A.** 1.01

**Q.** With ATTATGCAAG as the sequence, how does the switch fluorescence ratio read?
**A.** 0.997

**Q.** How did the switch fluorescence ratio turn out when ATTATGCGCC was run?
**A.** 0.987

**Q.** How did the switch fluorescence ratio turn out when ATTATGGAGT was run?
**A.** 1

**Q.** For ATTATTTATG, which switch fluorescence ratio is on record?
**A.** 1.01

**Q.** For ATTCAAGTGG, which switch fluorescence ratio is on record?
**A.** 1.03

**Q.** How did the switch fluorescence ratio turn out when ATTCAGACAG was run?
**A.** 0.995

**Q.** For ATTCAGTCAG, which switch fluorescence ratio is on record?
**A.** 0.996

**Q.** How did the switch fluorescence ratio turn out when ATTCAGTCCG was run?
**A.** 0.979

**Q.** ATTCCAAACG was tested. Which switch fluorescence ratio did it give?
**A.** 1.06

**Q.** Which switch fluorescence ratio does the source give for ATTCCAACTC here?
**A.** 1.07

**Q.** For ATTCCAGTGG, which switch fluorescence ratio is on record?
**A.** 0.989

**Q.** ATTCCCGTCG was tested. Which switch fluorescence ratio did it give?
**A.** 1

**Q.** For ATTCCGAATG, which switch fluorescence ratio is on record?
**A.** 1.09

**Q.** For ATTCCGAGC, which switch fluorescence ratio is on record?
**A.** 1.68

**Q.** With ATTCCGGGGT as the sequence, how does the switch fluorescence ratio read?
**A.** 1.06

**Q.** How did the switch fluorescence ratio turn out when ATTCCGTAAG was run?
**A.** 1.16

**Q.** Which switch fluorescence ratio does the source give for ATTCCTATAA here?
**A.** 0.962

**Q.** ATTCCTCCAA was tested. Which switch fluorescence ratio did it give?
**A.** 2.39

**Q.** For ATTCGACATA, which switch fluorescence ratio is on record?
**A.** 1.03

**Q.** ATTCGGACG was tested. Which switch fluorescence ratio did it give?
**A.** 1.03

**Q.** Which switch fluorescence ratio does the source give for ATTCGGAGTC here?
**A.** 0.994

**Q.** Which switch fluorescence ratio does the source give for ATTCGTAGTA here?
**A.** 1.02

**Q.** How did the switch fluorescence ratio turn out when ATTCTAAGAA was run?
**A.** 0.987

**Q.** ATTCTGCCGG was tested. Which switch fluorescence ratio did it give?
**A.** 0.973

**Q.** ATTCTGTTCG was tested. Which switch fluorescence ratio did it give?
**A.** 1

**Q.** With ATTCTTGTGT as the sequence, how does the switch fluorescence ratio read?
**A.** 0.977

**Q.** For ATTGAAAGAT, which switch fluorescence ratio is on record?
**A.** 1.01

**Q.** With ATTGAACCTT as the sequence, how does the switch fluorescence ratio read?
**A.** 1.01

**Q.** For ATTGAAGGAA, which switch fluorescence ratio is on record?
**A.** 0.94

**Q.** How did the switch fluorescence ratio turn out when ATTGACTTTA was run?
**A.** 1.07
